# Among all 360,000 compounds or so, about 7,500 (2.1%) were called active. This list was built around the results that the source calls inconclusive (neither active nor inactive); the mix of calls is not that of the screen. The call rests on the fitted dose curve; in most records, active means well fitted cell-killing curve with a large enough effect; inconclusive means small, poorly fitted or top-dose-only effect, or effect the other way, or another doubt; inactive means no such curve, though single readings can be large or run the other way. Potencies of inconclusive entries are left out as doubtful fits.
# Test: qHTS for induction of synthetic lethality in tumor cells producing 2HG: qHTS for the HT-1080-IDH1KD cell line;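 on activity, negative = toxicity: 0% = DMSO wells and -100% = cell-free medium wells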
# Details: HT-1080 IDH1 knockdown viability, ATP luminescence, 48 h; activity, negative = toxicity: at 46.1 µM (top of the series) unless noted
# In short: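 After a 2 h attachment period, IDH1KD HT-1080 cells took pin-transferred compound for 48 h at 37 °C; ATP-based luminescence after 10 min room-temperature reagent incubation reported viability.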
# Potency means the concentration at half of the fitted maximal effect; tags describe the fitted curve by direction and shape.
SMILES,"activity, negative = toxicity",Potency
Cc1nn(-c2ccccc2)c(N2CCCC2)c1/C=N/O,inactive: 5.36%,–
O=C(CCCn1c(SCC(=O)c2ccc(F)cc2)nc2ccccc2c1=O)NCc1ccccc1,–,"inconclusive [cytotoxic, single point]"
C=CCNC(=S)Nc1sc2c(c1C(=O)OCC)CC(C(C)C)OC2 (stereo not drawn),–,active: 7.94 µM
CC1CN(C(=O)c2ccccc2)C(=Nc2cccc(S(=O)(=O)N(C)C)c2)S1 (stereo not drawn),inactive: -6.29%,–
CC(NCC(O)COCc1ccc(Cl)cc1)c1ccccc1 (stereo not drawn),inconclusive: -32.3% [cytotoxic],–
COc1ccc(OC)c(NC(=O)c2ccno2)c1,–,"inconclusive [rising, single point]"
CCN(CC)S(=O)(=O)c1cccc(C(=O)N/N=C/c2cccc(O)c2O)c1,–,"inconclusive [cytotoxic, partial curve]"
Cc1ccc(C)c(NC(=O)CSc2n[nH]c(-c3ccccn3)n2)c1,–,"inconclusive [cytotoxic, single point]"
Cc1c(NC(=O)c2ccc(=O)oc2)c(=O)n(-c2ccccc2)n1C,–,"inconclusive [cytotoxic, single point]"
CCCc1cnc(Nc2nc(C(N)Cc3ccc(C(F)(F)F)cc3)cs2)nc1 (stereo not drawn),–,"inconclusive [cytotoxic, single point]"
O=C(CCl)Nc1ccccc1C(=O)NCc1ccccc1,–,"inconclusive [cytotoxic, single point]"
COc1ccc(C(=O)Nc2cc(Cl)ccc2OC(=O)c2ccc(OC)cc2)cc1,inactive: -9.46%,–
C/C(=C\c1ccco1)C1C(C#N)=C(N)Oc2n[nH]c(-c3ccc(C)cc3)c21 (stereo not drawn),–,"inconclusive [cytotoxic, single point]"
O=C(CSc1nc2ccccc2[nH]1)Nc1cc(C(F)(F)F)ccc1N1CCOCC1,–,"inconclusive [cytotoxic, single point]"
CN1CCN(S(=O)(=O)c2ccc(N(C)Cc3ccc(C(F)(F)F)cc3)c([N+](=O)[O-])c2)CC1,–,"inconclusive [cytotoxic, single point]"
Cn1nc(C(C)(C)C)cc1C(=O)NCc1ccc2c(c1)OCO2,–,"inconclusive [cytotoxic, single point]"
C#Cc1ccc(NC(=O)C2(C)CCN2C(=O)C/C=C/c2ccccc2)cc1 (stereo not drawn),–,"inconclusive [cytotoxic, single point]"
COc1ccc2[nH]c3c(NCCN(C(C)C)C(C)C)ncnc3c2c1,inactive: -20.4%,–
COc1ccc(CCCNC(=O)C2Cc3c(-c4cccc(C(N)=O)c4)ccnc3O2)cc1 (stereo not drawn),–,"inconclusive [cytotoxic, single point]"
COc1ccc(S(=O)(=O)Nc2cc(C)cc(C)n2)c2ccccc12,inactive: 0%,–
CNc1nc(-c2ccccc2)nc(-c2ccc(OC)cc2)c1C#N,–,"inconclusive [rising, partial curve]"
Cc1ccc(C(=O)OCC(=O)NCc2cccs2)c(C)c1,–,"inconclusive [cytotoxic, single point]"
Cc1ccccc1OCc1nc2c3c(ncn2n1)-c1ccccc1CC31CCCC1,inactive: 22.7%,–
Cc1cc2cc(C)c3nnc(SCC(=O)N4CCN(C(=O)c5ccco5)CC4)n3c2cc1C,–,"inconclusive [cytotoxic, partial curve, poor fit]"
OC[C@@H](O)[C@H](O)C(/C=N/Nc1ccccc1)=N\Nc1ccccc1,–,"inconclusive [cytotoxic, partial curve]"

SMILES,"activity, negative = toxicity",Potency
CCCCOC(=O)c1ccc(NC(=O)CSc2nnnn2C)cc1,inconclusive: -32.6% [cytotoxic],–
CC(=O)c1ccc(NC(=O)c2ccc3snnc3c2)cc1,–,"inconclusive [cytotoxic, single point]"
O=C(CN(c1ccc(F)cc1)S(=O)(=O)c1ccccc1)NCCSC1CCCCC1,–,"inconclusive [cytotoxic, single point]"
COc1ccccc1-c1cnc(C(O)c2ccc(Cl)cc2C)[nH]1 (stereo not drawn),–,"inconclusive [cytotoxic, single point]"
CCN(CC)S(=O)(=O)c1ccc(C(=O)OCC(=O)NCc2ccco2)cc1,inactive: -22.5%,–
COC(=O)c1scc(C)c1NC(=O)c1ccc(Cl)cc1,inactive: -0.236%,–
CC(NC(=O)Nc1cccc([N+](=O)[O-])c1)(C(F)(F)F)C(F)(F)F,–,active: 16.4 µM
OCCCNCc1ccc(N(c2ccccc2)c2ccccc2)cc1,–,active: 16.4 µM
OC1(c2ccc(OC(F)F)cc2)CSC(=Nc2cccnc2)N1C1CC1 (stereo not drawn),–,"inconclusive [cytotoxic, full curve]"
COc1cc(Cl)c(CN2CCCC(CO)(Cc3ccccc3F)C2)cc1OC (stereo not drawn),–,"inconclusive [cytotoxic, partial curve]"
CCC(COC)NCc1cn(-c2ccc(OC)cc2)nc1-c1cccc(F)c1 (stereo not drawn),–,"inconclusive [cytotoxic, single point]"
O=C(Oc1ccccc1/C=C\C(=O)c1cc2ccccc2o1)c1ccccc1,–,"inconclusive [cytotoxic, single point]"
CCCCCN=Cc1c(C)[nH]n(-c2nc3ccccc3s2)c1=O,–,active: 5.01 µM
O=C(Nc1nc2cc3c(cc2s1)OCCO3)C1=COCCO1,–,active: 13 µM
c1ccc(-c2cc3nc(NCc4cccs4)ccn3n2)cc1,inconclusive: -30.6% [cytotoxic],–
Cc1cccc(NCc2ccc(O)c3ncccc23)c1,–,"inconclusive [cytotoxic, partial curve]"
Cc1cc(SCC(=O)N/N=C/c2ccc(O)c(O)c2O)c(C)cc1Br,–,"inconclusive [cytotoxic, partial curve]"
CCc1ccc2[nH]c(=O)c(C(c3nnnn3CCOC)N3CCN(c4ccc(F)cc4)CC3)cc2c1 (stereo not drawn),–,"inconclusive [cytotoxic, partial curve]"
CCn1c(SCC(=O)OC)nc2sc3c(c2c1=O)CC(C)(C)OC3,–,"inconclusive [cytotoxic, single point]"
O=C(Nc1ccc(Cl)cc1)C1CCC(=O)N1Cc1ccccc1Cl (stereo not drawn),inactive: 0.752% [at 9.24 µM],–
COc1cccc(CC2(CO)CCCN(Cc3cc4ccccc4[nH]3)C2)c1 (stereo not drawn),–,active: 23.1 µM
CCOC1CCCc2oc(-c3ccc(N(C)C)cc3)c(C(=O)OC)c21 (stereo not drawn),–,"inconclusive [cytotoxic, single point]"
COc1ccc(C(O)(C(=O)NNc2ccc(C)cc2)c2cccs2)cc1 (stereo not drawn),inconclusive: -37% [cytotoxic],–
COc1cc(OC)c(NC(=O)Cn2cnc3sc(C)c(S(=O)(=O)N4CCOCC4)c3c2=O)cc1Cl,inactive: -3.31%,–
O=C(N/N=C\c1cccc([N+](=O)[O-])c1O)C1COc2ccccc2O1 (stereo not drawn),–,"inconclusive [cytotoxic, single point]"

SMILES,"activity, negative = toxicity",Potency
Cc1ccc(C(C)C)c(OCC(O)CN2CCc3ccccc3C2)c1 (stereo not drawn),–,"inconclusive [cytotoxic, single point]"
OC(CNCCC(c1ccccc1)c1ccccc1)COc1ccccc1 (stereo not drawn),–,active: 23.1 µM
CCOC(=O)c1cnc(SCc2cccc3ccccc23)nc1N,–,"inconclusive [cytotoxic, single point]"
CCc1ccc(N2CC(C(=O)Nc3ccc(C)c(S(=O)(=O)N4CCOCC4)c3)CC2=O)cc1 (stereo not drawn),inactive: 0.301%,–
Cc1ccc(-c2nn(-c3ccccc3)cc2NC(=O)CCl)cc1,–,active: 7.31 µM
CN1C2CCC1/C(=C\c1ccccc1F)C(=O)/C2=C/c1ccccc1F,–,active: 11.6 µM
COCCNC(=S)N(CCc1c(C)[nH]c2ccc(Cl)cc12)Cc1cccs1,–,"inconclusive [cytotoxic, single point]"
CC1(Cc2ccc(Cl)c(Cl)c2)C(=O)Nc2ccc(S(=O)(=O)NC3CCCCC3)cc21 (stereo not drawn),–,"inconclusive [cytotoxic, single point]"
COC(=O)C1CN(C(=O)c2ccc(OC(F)F)cc2)c2ccccc2O1 (stereo not drawn),inactive: 12.7%,–
Cc1ccc(C)c(N2CCN(CCCNC(=O)Cn3cccc3C(=O)c3ccccc3)CC2)c1,inactive: 7.75%,–
N=c1c2c(-c3ccccc3)c(-c3ccccc3)n(Cc3ccco3)c2ncn1CCO,–,active: 18.4 µM
COc1cc(C2C(C#N)=C(N)Oc3cc(N)ccc32)cc(OC)c1OC (stereo not drawn),–,active: 0.58 µM
Cc1cc2nc(-c3ccccc3)c(Cc3cccc(F)c3)n2c(C)c1Br,inactive: -24.7%,–
COc1ccc(C2=NN(C(N)=S)C(c3ccccc3)C2)cc1 (stereo not drawn),–,"inconclusive [cytotoxic, partial curve]"
Clc1ccccc1Nc1nnc(-c2ccncc2)s1,–,active: 7.31 µM
Cc1cccc(-c2cc(C(=O)N3CCCc4ccccc43)c3ccccc3n2)c1,inactive: -5.93%,–
CCn1c(COc2ccc(C)cc2)nnc1SCc1nc2ccccc2[nH]1,–,"inconclusive [cytotoxic, single point]"
COc1ccc(C(C)NC(=O)CC23CC4CC(CC(C4)C2)C3)cc1 (stereo not drawn),inactive: -1.74%,–
COc1ccc(C(=O)Nc2cccc(-c3nc4ncccc4o3)c2C)cc1OC,–,"inconclusive [cytotoxic, single point]"
C(=C\c1ccc2ccccc2n1)/c1ccccc1,inconclusive: -31.5% [cytotoxic],–
COc1cccc(/C=N/NC(=O)c2ccc(N3CCCC3=O)cc2)c1,–,"inconclusive [cytotoxic, partial curve]"
O=C(NNC(=S)NC1CCCCC1)c1ccccc1Br,inactive: 0%,–
CC(=O)Nc1ccc(SCC(=O)Nc2ccccc2N2CCOCC2)cc1,inactive: -3.91%,–

# — PubChem BioAssay AID686971 (National Center for Advancing Translational Sciences (NCATS), 2013)
